In patent US20110091470A1, “ANTI-FLT3 ANTIBODIES” (IMCLONE LLC, priority 2008, published 2011):

System: FLT3 in selected human leukemia cell lines
Conditions: BaF3-control cell line, FLT3-negative

In the case of “EB10: recombinant human monoclonal antibody, full length IgG1κ targeting human FLT3; heavy chain SEQ ID NO 25, light chain SEQ ID NO 28”, the “binding by flow cytometry (in words)” value is reported as “No binding”.
